This is one part of the list.
system: PfSIP2 AP2 domain 1 (GST-tagged); experiment: gcPBM binding intensity (ln(normalized median fluorescence intensity)); higher = stronger DNA binding
How it was run: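 An Agilent 4 × 180k array carrying primer-extended double-stranded 36-bp intergenic genomic probes and negative controls received GST-tagged P. falciparum DNA-binding domains expressed in E. coli, about 25 μg on average, for 1 h. The binding buffer contained 1× PBS, 1% milk, 0.2 mg/ml BSA, 0.5% salmon testes DNA and 0.03% Triton X-100. Binding intensity is the top Masliner-normalised natural-log median intensity across replicate spots of either probe orientation, read after Alexa488 anti-GST antibody staining and a 488 nm scan.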

Sequence	gcPBM binding intensity (ln)
TCATATAACACTTGATGTACAAGAATCCAAGTTGCA [XGTACX_site8758]	7.01
ATATGTATAATATATATATATATATATATATATATA [CACACA_negctrl_site623]	9.23
TAAATACTTTTATGTACACACATATAGATATATATT [CACACA_site5416]	7.16
GTGATAAATATTATATGTACATATAATATTTATGTC [XGTACX_site8023]	7.16
TTGAACCTGATAAATACACACAATATATATTTTTTT [CACACA_site2173]	6.92
TCAAAAACGAGACATGCATGCAATTCATTTTGATTC [TGCATGCA_site212]	6.6
CCATTCTTACTTTATTGTACTTGAAAATTTTTTTTA [XGTACX_site6160]	7.29
TTTTTGTGCATTGATTGTACTTTCTAGGATTATTAA [XGTACX_site7070]	8.15
TTTATCCAATAATCTGGTACACAATAATCATTCATG [XGTACX_site6192]	6.84
TTTTTTTACTTAATAGTTCAACATATATCTCAATGT [CACACA_negctrl_site620]	6.8
ATTCATATATACTTCACACACATTTTATCATTCAAA [CACACA_site2468]	7.81
TTTCTATTTATTTCAAGTACTAAAAATATATATAAC [XGTACX_site8203]	7.24
GAAATTATGTAAAAAAGTACTAACATACATATATAT [XGTACX_site1794]	7.18
GAAAACGTCTTTAATAGTACACAGTTAAAAAATACA [XGTACX_site8976]	7.08
TTTTTTCATTATATATAGTATGCAAGTCAAATTAAT [GTGCAC_negctrl_site207]	7.05
TATATATATATATAAAGTACATATAATATATATTTG [XGTACX_site5412]	9.15
TTTTTTTTTTTGATGGTGCAATATATTAAATAGAAA	10.1
AAAAAAAAAAAAAACATACACACATTGAACTTTTAT [CACACA_site3251]	7.15
ACAAAATTTACAAAATGTACAAAATTTACAAAATAT [XGTACX_site3542]	6.91
CTATAAAAATATAATTGTACAAATTTTTATATCTTA [XGTACX_site7722]	6.84
AGAATCACCAAATATGTACACACCTTAACATGTTTA [CACACA_site2068]	6.99
ATATAACATAATGGATGTACATGTATAAATATAAAA [XGTACX_site8228]	7.1
ATATATATGGTCATTTGTACATATCGTGAGAGCTGC [XGTACX_site4117]	7.12

Sequence	gcPBM binding intensity (ln)
TATATTATAAATTAATGTACGTAATTTTTTTTTTTT [XGTACX_site2500]	6.99
TTTTTTTTTTACTTCACACATATACATTTATATTTA [CACACA_site4385]	7.19
TAAACATACAGATACACACACACACCCACAGAGACA [CACACA_site4429]	7.19
CTTGGGCGTCATAATGAACACACAATTATATTATGA [CACACA_site9297]	6.71
TTATTACCATATTTTGTACACACATCTTTATCTCAA [CACACA_site9054]	7.23
AAAATAATAAATAACGCATGCGTGTGCATTTTATTC [TGCATGCA_site898]	7.15
ATATATACAAATCCTTTTTTCCAAGATGGAAAAAGA [CACACA_negctrl_site382]	6.84
ATTATATAATCTATATGTACATATATATATATATAT [XGTACX_site4970]	9.69
TATATATAAGCGCATGCACACGCAAAGGTATATAAA [CACACA_site8107]	7.14
ATAATAATATTATTTTGTACATATGTGCTTATTTAT [XGTACX_site5540]	7.17
TTTTGTCAACATTTTTATATTAGGTCTTGAACGATT [GTGCAC_negctrl_site72]	6.9
GTATAATTTAAAAAGTGTACATAAAGTTTTTATTAA [XGTACX_site1090]	7.28
AGTAATAAGTAATTTACACACATATTATAGCATCAC [CACACA_site6971]	7.04
AAAAAATTCAAAATCACACATAAAAAAGGACACATA [CACACA_site5972]	7.29
CCTACAATTCGTAATACACACACATATATATATATA [CACACA_site9251]	9.52
TCATATTATAAAAAATGTACAAGGAAAAAATATATA [XGTACX_site337]	7.04
TAATTTTGTAAAAATTGTACATATTTATCTTTTTAT [XGTACX_site4305]	6.77
ACATTATATAAAATATGTACACATAAATAAATAAAT [XGTACX_site5031]	7.14
AAAAAAAAAAAAAACACACACATATAATATATTTAA [CACACA_site1337]	7.32
ACAAACTAAAAAAGAAGTACAAATCGTATTAATAAT [XGTACX_site8684]	7.11
TTTTTTGAAAATAAAAGTACAAATTTTATATTTAAA [XGTACX_site2758]	6.9
AGAAAAAAACGGTACAGTACACATAAACTAATTATT [XGTACX_site8617]	6.92
TATTATATATGGAAGTAATAATATATATATATATAT [GTGCAC_negctrl_site63]	9.02

Sequence	gcPBM binding intensity (ln)
GATTAAATTTGACACTGTACAAAAAATAAAATGAGG [XGTACX_site504]	7.36
GTTAATTCATTAAGGACACACAAAAAAAAAAAAAAA [CACACA_site998]	7.01
ATGAATATAAAATATACACACTTATATATTGAATGA [CACACA_site4274]	6.71
CCAACATAGAGGGGCACACACATATATACATAAAAA [CACACA_site1847]	7.83
AGTATACATATATATACACACACATATATATATATA [CACACA_site7883]	9.43
CTTATATGAAGCCTCTTTATTCATAAATAAGAATAA [TGCATGCA_negctrl_site120]	7.02
AAACAACATGGACACGCACACACAAAAAAAGCATGC [CACACA_site73]	7.21
TTAACAAAATTTCCGTGTACGTAAATAAGAACATAG [XGTACX_site7200]	7.25
TTACATACATACAAGTGTACGCATATATTAATATTA [XGTACX_site4006]	7.52
ATATGTACAAGTTATACACACATGTACAGTTATATA [CACACA_site6706]	7.11
TTTAACATTTCAGATGTGCACATTTTCCGAACCAGT	9.72
AGAACGACTAAGCAGTGTACATTTTGTATATACAAT [XGTACX_site2831]	7.07
AAAGAACTTAATGCTGCACACAAAAAAAAGGAAAAA [CACACA_site8375]	6.91
TAAATGTGTATATATTGTACAAATATTAATACATAC [XGTACX_site8102]	6.96
AAATTGTTAAAAAGAAGTACATTCTTTTATTTCTTA [XGTACX_site540]	6.92
ATAATGAAGACTTTTTTACACACTTCATATATTATA [CACACA_site8630]	6.96
TGATATTTTTCCATAGTGCAAAATATAGTAATGTAT	8.15
ATGTACTATGATAATGCATGCAATAATACATTTTTA [TGCATGCA_site318]	6.88
TTATTATGTATATATGCACACAATACCCAAAACAAC [CACACA_site80]	9.34
TAATATATATATAATACACACTATTTTAATCACATA [CACACA_site4849]	6.87
TTTATTGCTCTATATGCACACCTTAATTCTTCATTT [CACACA_site8682]	7.42
GAAGATTTATCTTGCACACGCAAAAAAAAAAAAAAA [CACACA_site154]	6.97
GAAAATATTTCTATCTGTACTTATTTATATATATAT [XGTACX_site7317]	8.87

Sequence	gcPBM binding intensity (ln)
AAAAATAATCATAGTAGTACAAAAAAAAAAAAAAAA [XGTACX_site3736]	7.04
TACGTAAATTCTAATACACACTATAGGATATTCTGC [CACACA_site7248]	6.7
TTTTTATGAAAATAAACACACGATTTATTATATATA [CACACA_site1311]	6.7
TTCTATATATTATATGCATGTAAAACATATTAAAAT [TGCATGCA_site662]	7.12
TGCATGTAATTTTTGTGTCCACATAAAATATTTAAT [XGTACX_site5652]	7.1
TTTTTCAATTGTAGTGGTACAGATATAATTATCTCT [XGTACX_site5500]	6.93
ATCATTTTTTATGCGTGTACATAAATTTATTAGGTT [XGTACX_site2786]	7.52
TAATTATTACACGGTATTATATATAATATGTTAAAA [GTGCAC_negctrl_site134]	6.91
TTTTTTGTTAAACCGGTGCATATAAATATATATATA [GTGCAC_site9989]	9.54
CACAAAAAAGTTCATACACACAACATATTTATATAT [CACACA_site2887]	6.98
TTTTTTTTTTTTCTGTGTACATATATAATATATATA [XGTACX_site1592]	7.53
ATATCTATATTTTAAAGTACGTAGTAAAAAGAAAAA [XGTACX_site4323]	6.98
TTTTATGAAAAGATGAGTACACAATACTTTTTAATT [XGTACX_site8253]	7.31
TTATGTCGTAAATACACACATACATATACATACACA [CACACA_site1374]	6.98
TTGTCACTAATAGATGCATGCAATCATTCCATTTTT [TGCATGCA_site938]	6.97
TTGTAATGATATATTTGTACTTAATATAATTGTATA [XGTACX_site2748]	6.91
AATAAATTGAAACACACACACACATATATATATATA [CACACA_site848]	9.2
TAACAAAACATAGATTGTACATATTATAAATGTATA [XGTACX_site1543]	6.99
GTTACATACCTATACACACACATATATAAATAAATA [CACACA_site6549]	7.46
TATTCTTATCTTACCACACACAATGTACGAAAAGAT [CACACA_site6296]	7.19

Reference: the supplement of paper PMC11417369
